According to the supplement of paper PMC8728848:
The list shows a part of the results.

Experiments:
Test in all cases: glycan array binding signal (z-score within array); higher = stronger binding
Conditions in all cases: glycan notation: IUPAC condensed, linker removed
[1] = biological target: Gal3S(b1-4)Glc
In short: (§1)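 The binding signal is a Z-score computed within each array and averaged over linkers. Arrays of the same protein sequence at different concentrations or buffers were also averaged together. Data originate from 3228 arrays in the Consortium for Functional Glycomics database, kept only where the protein sequence was available.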

[2] = biological target: Gal3S(b1-4)Glc6S
In short: as §1

[3] = biological target: Gal3S(b1-4)GlcNAc
In short: as §1

[4] = biological target: Gal3S(b1-4)[Fuc(a1-3)]Glc6S
In short: as §1

[5] = biological target: Gal3S(b1-4)[Fuc(a1-3)]GlcNAc
In short: as §1

[6] = biological target: Gal3S(b1-4)[Fuc(a1-3)]GlcNAc6S
In short: as §1

[7] = biological target: Gal3S4S(b1-4)GlcNAc
In short: as §1

[8] = biological target: Gal3S6S(b1-4)GlcNAc
In short: as §1

[9] = biological target: Gal3S6S(b1-4)GlcNAc6S
In short: as §1

[10] = biological target: Gal4S(b1-4)GlcNAc
In short: as §1

[11] = biological target: Gal4S6S(b1-4)GlcNAc
In short: as §1

[12] = biological target: Gal6P(b1-4)GlcNAc
In short: as §1

[13] = biological target: Gal6S(b1-3)GlcNAc
In short: as §1

[14] = biological target: Gal6S(b1-3)GlcNAc6S
In short: as §1

[15] = biological target: Gal6S(b1-4)Glc
In short: as §1

[16] = biological target: Gal6S(b1-4)Glc6S
In short: as §1

[17] = biological target: Gal6S(b1-4)GlcNAc
In short: as §1

[18] = biological target: Gal6S(b1-4)GlcNAc6S
In short: as §1

[19] = biological target: GalNAc(a1-3)Gal
In short: as §1

[20] = biological target: GalNAc(a1-3)GalNAc
In short: as §1

[21] = biological target: GalNAc(a1-3)GalNAc(b1-3)Gal(a1-4)Gal(b1-4)Glc
In short: as §1

[22] = biological target: GalNAc(a1-3)GalNAc(b1-3)Gal(a1-4)Gal(b1-4)GlcNAc
In short: as §1

[23] = biological target: GalNAc(b1-3)Gal
In short: as §1

[24] = biological target: GalNAc(b1-3)Gal(a1-4)Gal(b1-4)GlcNAc
In short: as §1

[25] = biological target: GalNAc(b1-3)Gal(a1-4)Gal(b1-4)GlcNAc(b1-3)Gal(b1-4)Glc
In short: as §1

[26] = biological target: GalNAc(b1-3)Gal(a1-6)Gal(b1-4)Glc
In short: as §1

[27] = biological target: GalNAc(b1-3)GalNAc
In short: as §1

[28] = biological target: GalNAc(b1-3)GlcNAc
In short: as §1

[29] = biological target: GalNAc(b1-4)Gal(b1-4)Glc
In short: as §1

[30] = biological target: GalNAc(b1-4)GlcNAc
In short: as §1

[31] = biological target: GalNAc(b1-4)GlcNAc(b1-2)Man
In short: as §1

[32] = biological target: GalNAc(b1-4)GlcNAc(b1-2)Man(a1-3)[GalNAc(b1-4)GlcNAc(b1-2)Man(a1-6)]Man(b1-4)GlcNAc(b1-4)GlcNAc
In short: as §1

[33] = biological target: GalNAc(b1-4)GlcNAc(b1-3)GalNAc(b1-4)GlcNAc
In short: as §1

[34] = biological target: GalNAc(b1-4)GlcNAc6S
In short: as §1

[35] = biological target: GalNAc(b1-6)GalNAc
In short: as §1

[36] = biological target: GalNAc3S(b1-4)GlcNAc
In short: as §1

[37] = biological target: GalNAc3S(b1-4)GlcNAc3S
In short: as §1

[38] = biological target: GalNAc3S(b1-4)[Fuc(a1-3)]GlcNAc
In short: as §1

[39] = biological target: GalNAc4S6S(b1-4)GlcNAc
In short: as §1

[40] = biological target: GalNAc6S(b1-4)GlcNAc
In short: as §1

[41] = biological target: Glc(a1-4)Glc
In short: as §1

[42] = biological target: Glc(a1-4)Glc(a1-4)Glc(a1-4)Glc
In short: as §1

[43] = biological target: Glc(a1-6)Glc(a1-6)Glc
In short: as §1

[44] = biological target: Glc(a1-6)Glc(a1-6)Glc(a1-6)Glc
In short: as §1

[45] = biological target: Glc(b1-4)Glc
In short: as §1

B1: LngA (Escherichia coli) (protein)
chain: MLSVYNRTQKFKAEARKKIAKYHELRKQRGMSLLEVIIVLGIIGTIAAGVVILAQRAFDSRAVTDLVTNTNTVRVRMKDAYQRDGKYPDFVDPLSLTANTIKTDTSGIPAAQLVQLGKITPDEVRNNISGDFIAIGGALTSNGAQVKKGFAIELNGLSQEQCRSILGQVGNNWEYVAIGTSASGSYAMTATGVDMSVAASTTVLRSLGNNGQTTLTADKILSTCTAQVNSITLGSR
[1]
  glycan array binding signal (z-score): 4.16
[2]
  glycan array binding signal (z-score): 2.3
[3]
  glycan array binding signal (z-score): 0.599
[4]
  glycan array binding signal (z-score): 0.739
[5]
  glycan array binding signal (z-score): -0.481
[6]
  glycan array binding signal (z-score): 2.64
[7]
  glycan array binding signal (z-score): 0.144
[8]
  glycan array binding signal (z-score): 1.61
[9]
  glycan array binding signal (z-score): 2.24
[10]
  glycan array binding signal (z-score): -0.484
[11]
  glycan array binding signal (z-score): -0.132
[12]
  glycan array binding signal (z-score): 0.197
[13]
  glycan array binding signal (z-score): -0.378
[14]
  glycan array binding signal (z-score): 0.619
[15]
  glycan array binding signal (z-score): 0.168
[16]
  glycan array binding signal (z-score): 1.66
[17]
  glycan array binding signal (z-score): -0.359
[18]
  glycan array binding signal (z-score): 0.498
[19]
  glycan array binding signal (z-score): -0.3
[20]
  glycan array binding signal (z-score): -0.088
[21]
  glycan array binding signal (z-score): -0.513
[22]
  glycan array binding signal (z-score): -0.449
[23]
  glycan array binding signal (z-score): 0.532
[24]
  glycan array binding signal (z-score): -0.426
[25]
  glycan array binding signal (z-score): -0.43
[26]
  glycan array binding signal (z-score): -0.488
[27]
  glycan array binding signal (z-score): -0.272
[28]
  glycan array binding signal (z-score): -0.469
[29]
  glycan array binding signal (z-score): 0.945
[30]
  glycan array binding signal (z-score): -0.331
[31]
  glycan array binding signal (z-score): 0.194
[32]
  glycan array binding signal (z-score): -0.153
[33]
  glycan array binding signal (z-score): -0.431
[34]
  glycan array binding signal (z-score): -0.467
[35]
  glycan array binding signal (z-score): -0.538
[36]
  glycan array binding signal (z-score): -0.507
[37]
  glycan array binding signal (z-score): -0.494
[38]
  glycan array binding signal (z-score): -0.315
[39]
  glycan array binding signal (z-score): -0.449
[40]
  glycan array binding signal (z-score): -0.007
[41]
  glycan array binding signal (z-score): 0.436
[42]
  glycan array binding signal (z-score): -0.132
[43]
  glycan array binding signal (z-score): 0.075
[44]
  glycan array binding signal (z-score): 0.139
[45]
  glycan array binding signal (z-score): 0.718
